# Residue numbers refer to the chain shown, from its start. The list shows a part of the results.
# T1: UNK ZnF1-3 (human, UniProt Q9C0B0 31-174)
# T1 sequence: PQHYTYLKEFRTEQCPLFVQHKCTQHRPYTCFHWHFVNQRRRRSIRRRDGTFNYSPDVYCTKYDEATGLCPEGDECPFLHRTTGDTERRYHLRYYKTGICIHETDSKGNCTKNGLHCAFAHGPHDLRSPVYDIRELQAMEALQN
# B1: chr9:95013113:95013114:-_ENSG00000196305_ENST00000443024|hu_hu|hu_hu_hu_mus_False|28_48 (ssRNA)
# RNA: GGGAGUUCUACAGUCCGACGAUCCUCAGUCAGAAAGGGCGUGUAAGGGGCCAUCAGUCUGCACAGAGAAAGCAGGACACUGAACAGGGUUUCUAGGGCCAUGACACAAUCCUCCAUCCCACUCUCACCCUUUAACCUCCUCCUCAACAGAGGAUUGAGCAUCA
# B2: chr10:33214929:33214930:-_ENSG00000150093_ENST00000302278|hu_hu|hu_hu_hu_mus_True|18_28 (ssRNA)
# RNA: GGGAGUUCUACAGUCCGACGAUCAACAAGUUCAUUGAAAAACUCUCCUCUGUCAGUAAGACUAAGCACAUUUUUGUAGCUAAAUGGGCUGGUGCAGUUUUGUUCACUUGUGCAAGGGUUCCUGAGCUUUGCUGGGGUUGUGCUCAACAGAGGAUUGAGCAUCA
# B3: chr10:112361861:112361862:+_ENSG00000108055_ENST00000361804|hu_mus|FALSE|FALSE (ssRNA)
# RNA: GGGAGUUCUACAGUCCGACGAUCAAUAGCUUCAUAUUUUCUAAGUUCAAGUACAUUCAUCAAUUCCAUGAUUGAUUUGUAGCCUCUAUCCAAUUCCUCUUGCCGCUUUAUCAGCUUUUCCUUCUGCUCAGAGAAAUUCACAAACAACAGAGGAUUGAGCAUCA
# B4: chr19:34925787:34925788:+_ENSG00000126261_ENST00000246548|perfect_dup|FALSE|FALSE (ssRNA)
# RNA: GGGAGUUCUACAGUCCGACGAUCAAGAUACCCAGCUGUUCCACUUUCAAUAAGAGGAACAUCAGCUGCCAGGCACAUUCUAUUAACAUGGUUUCGGGCAGCUCUGUUAUCUAAAGCAUUCAUAACCAGUAUAAACUGUCGGAACAACAGAGGAUUGAGCAUCA
# B5: chr9:95013113:95013114:-_ENSG00000196305_ENST00000443024|hu_hu|hu_hu_hu_mus_False|18_78 (ssRNA)
# RNA: B1 RNA with C63A, G87U, U90C, U93C, G96A, A108G, C111U, U116C, C121U, C123U
# B6: chr2:53077437:53077438:+_ENSMUSG00000026960_ENSMUST00000028336|mus_hu|FALSE|FALSE (ssRNA)
# RNA: GGGAGUUCUACAGUCCGACGAUCACAUAGGGGAAAAAUUAAGGCUUAAUUACUUAGAAAACAAAAUAUCACAAUUACAGGAGCACAUUUAAUUACAAAAAUUAUAAAAUUAUAUUAACUAUAUGUAGUUUUUAAUAUCUAGUACAACAGAGGAUUGAGCAUCA
# B7: chr7:56126124:56126125:+_ENSG00000146731_ENST00000540286|hu_mus|motif|central (ssRNA)
# RNA: GGGAGUUCUACAGUCCGACGAUCUUGAUUAAUAACGACAAAUCCUUUAUCUGAGUCACCACAGACUUUCUUUUUCAGCUCGGUGAUUUUUUUAACUCUAUCUUCAAUGAAUUUUCUUUCAGCCUUUACUAGUUUUUCUCUCUCCAACAGAGGAUUGAGCAUCA
# B8: 6213919_6217037_498_CDS_ENSMUSG00000020456_ENSMUST00000003461|mouse|control|control (ssRNA)
# RNA: GGGAGUUCUACAGUCCGACGAUCCAGAUCAGCAUCCAAAAUCCCCAGGGGGUCCAGCUGUGCUACAUGGUGCCCUCGUAUCUGAUAUGCCCUGAUGAGAGACUGCACCGCCAAGUGGUCCUCCACGAGUUUGUCGACGUUAGGCAACAGAGGAUUGAGCAUCA
# B9: chr4:128450444:128450445:-_ENSMUSG00000028799_ENSMUST00000106072|mus_mus|motif|central (ssRNA)
# RNA: GGGAGUUCUACAGUCCGACGAUCAGGCUGUUAACAGUAUUGGAACAGCAUAUUUACAGGGUAGUAACAUGCGGACAAAAGCGGCAAUACGGAGUAUCAGACGACGCAAGUCAAACAAAGGGGUGGGGGUGGGGGGCUGAGACCCAACAGAGGAUUGAGCAUCA
# B10: chr5:128441001:128441002:+_ENSG00000066583_ENST00000173527|hu_mus|FALSE|FALSE (ssRNA)
# RNA: GGGAGUUCUACAGUCCGACGAUCACACACGUGCGUUUCUACUCCAAACAACACGACACUCCGGACGCCAGGAAUCUCGGCUAACGCUGCUUCGACUUCAGGUAACACCAUAGAAAACUUGGUCUUUGGAAGAACCAGUUUCACCAACAGAGGAUUGAGCAUCA
# B11: chr19:40030274:40030275:-_ENSG00000176396_ENST00000390658|hu_mus|FALSE|FALSE (ssRNA)
# RNA: GGGAGUUCUACAGUCCGACGAUCCGGGUAGUUCUCCAGGUAGUGGCGCAGGAACUGCUGGUAAUUGAUGCCCAAGACGCUGAGGGGGUGGCGGAAGCGCAUGUACGGCAUCGCCGCCAGGCCGCCCGCCCUGGACCGGGGCCUCAACAGAGGAUUGAGCAUCA
# B12: chr11:69466514:69466515:+_ENSG00000110092_ENST00000227507|hu_hu|FALSE|FALSE (ssRNA)
# RNA: GGGAGUUCUACAGUCCGACGAUCAUAUGUUUUUCUACCUAAAACCCUCUUCUACUUUAAAAAUGGUUUGCUGAAUUUUUCUAUGUUUUUAAAAUGUUUUUAUGCUUUUUUUUAAACACGUAAAGGAUGGAACCUAAUCCUCUCCAACAGAGGAUUGAGCAUCA
# B13: chr1:109605286:109605287:-_ENSG00000197780_ENST00000461096|hu_mus|hu_hu_hu_mus_True|58_68 (ssRNA)
# RNA: GGGAGUUCUACAGUCCGACGAUCAAGUUUCAGAGUAACAUUCAGUAACCUCUUUAAAUGCAAUUAUCCUUACUUUAAACUAAGGGCAAUAAUAAUUUAAUACCGUAAGUGAACUACACACAAAGCCUGAACCGCGAAAAUGGUCAACAGAGGAUUGAGCAUCA
# B14: chr10:121347744:121347745:-_ENSG00000151923_ENST00000436547|hu_hu|motif|central (ssRNA)
# RNA: GGGAGUUCUACAGUCCGACGAUCCAAUCUGACUGAACAACUGAAGUAUAAGGACUUCUGUCACAUCUCUGGAAAGGUUACCGGCGUAUAGAGUCCGGGGCUGCCCGUCGUCUUCCAUCAUGGUGGGUGCGACGGAGCGAUCCCCAACAGAGGAUUGAGCAUCA
# Biological target: T1, UNK ZnF1-3
# Experiment: nsRBNS (natural sequence RNA bind-n-seq); RBNS binding buffer (assumed for nsRBNS): 25 mM Tris pH 7.5, 150 mM KCl, 3 mM MgCl2, 0.01% Triton X-100, 500 ug/ml BSA, 20 U/ml SUPERase-In, 4 C; UNK is unkempt and MSI1 is Musashi-1; names of the RNAs are library labels; protein concentration not given here; high values mean tight binding
row,Binder,binding signal [enrichment R]
1,B1,1.24
2,B2,1.01
3,B3,0.761
4,B4,0.474
5,B5,1.22
6,B6,2.29
7,B7,0.421
8,B8,1.28
9,B9,2.2
10,B10,1.17
11,B11,0.663
12,B12,0.812
13,B13,0.705
14,B14,0.738
